# Experimental data as given in publication PMC9911399, “Two distinct binding modes provide the RNA-binding protein RbFox with extraordinary sequence specificity”.
# Changes are numbered by the printed parent chain; changes in the protein carry UniProt numbers. The list shows a part of the results.
# T1: RBFOX1 RRM (Homo sapiens, UniProt Q9NWB1 109-208)
# T1 sequence: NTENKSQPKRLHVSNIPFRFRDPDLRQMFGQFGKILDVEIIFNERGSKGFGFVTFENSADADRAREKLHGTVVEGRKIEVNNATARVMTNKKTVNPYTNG
# B1: UCACGCG (DNA:RNA)
# RNA: GGGAGACCGGAAUUCAGAUUGUCCUCACGCGUUAAAUCCCGUCGUAGCCACCA
# DNA 1: CAATCTGAATTCCGGTCTCCC
# DNA 2: TGGTGGCTACGACGGGATT
# B2: AUGAUUU (DNA:RNA)
# RNA: GGGAGACCGGAAUUCAGAUUGUCCAUGAUUUUUAAAUCCCGUCGUAGCCACCA
# DNA 1: CAATCTGAATTCCGGTCTCCC
# DNA 2: TGGTGGCTACGACGGGATT
# B3: GAACAAU (DNA:RNA)
# RNA: B1 RNA with U25G, C26A, G29A, C30A, G31U
# DNA 1: CAATCTGAATTCCGGTCTCCC
# DNA 2: TGGTGGCTACGACGGGATT
# B4: CCUUCAC (DNA:RNA)
# RNA: B1 RNA with U25C, A27U, C28U, G29C, C30A, G31C
# DNA 1: CAATCTGAATTCCGGTCTCCC
# DNA 2: TGGTGGCTACGACGGGATT
# B5: UGUUAGC (DNA:RNA)
# RNA: B1 RNA with C26G, A27U, C28U, G29A, C30G, G31C
# DNA 1: CAATCTGAATTCCGGTCTCCC
# DNA 2: TGGTGGCTACGACGGGATT
# B6: AGCCAGC (DNA:RNA)
# RNA: B2 RNA with U26G, G27C, A28C, U29A, U30G, U31C
# DNA 1: CAATCTGAATTCCGGTCTCCC
# DNA 2: TGGTGGCTACGACGGGATT
# B7: GCGACGC (DNA:RNA)
# RNA: B2 RNA with A25G, U26C, U29C, U30G, U31C
# DNA 1: CAATCTGAATTCCGGTCTCCC
# DNA 2: TGGTGGCTACGACGGGATT
# B8: CCUGACG (DNA:RNA)
# RNA: B1 RNA with U25C, A27U, C28G, G29A
# DNA 1: CAATCTGAATTCCGGTCTCCC
# DNA 2: TGGTGGCTACGACGGGATT
# B9: ACAACAC (DNA:RNA)
# RNA: B2 RNA with U26C, G27A, U29C, U30A, U31C
# DNA 1: CAATCTGAATTCCGGTCTCCC
# DNA 2: TGGTGGCTACGACGGGATT
# B10: GCGUGAG (DNA:RNA)
# RNA: B1 RNA with U25G, A27G, C28U, C30A
# DNA 1: CAATCTGAATTCCGGTCTCCC
# DNA 2: TGGTGGCTACGACGGGATT
# B11: UCGCAGU (DNA:RNA)
# RNA: B1 RNA with A27G, G29A, C30G, G31U
# DNA 1: CAATCTGAATTCCGGTCTCCC
# DNA 2: TGGTGGCTACGACGGGATT
# B12: GAAUUCG (DNA:RNA)
# RNA: B1 RNA with U25G, C26A, C28U, G29U
# DNA 1: CAATCTGAATTCCGGTCTCCC
# DNA 2: TGGTGGCTACGACGGGATT
# B13: CAAUGUG (DNA:RNA)
# RNA: B1 RNA with U25C, C26A, C28U, C30U
# DNA 1: CAATCTGAATTCCGGTCTCCC
# DNA 2: TGGTGGCTACGACGGGATT
# B14: CGGUGAG (DNA:RNA)
# RNA: B1 RNA with U25C, C26G, A27G, C28U, C30A
# DNA 1: CAATCTGAATTCCGGTCTCCC
# DNA 2: TGGTGGCTACGACGGGATT
# B15: AACCGCA (DNA:RNA)
# RNA: B1 RNA with U25A, C26A, A27C, G31A
# DNA 1: CAATCTGAATTCCGGTCTCCC
# DNA 2: TGGTGGCTACGACGGGATT
# B16: UUUUCGC (DNA:RNA)
# RNA: B2 RNA with A25U, G27U, A28U, U29C, U30G, U31C
# DNA 1: CAATCTGAATTCCGGTCTCCC
# DNA 2: TGGTGGCTACGACGGGATT
# B17: UAGUUGG (DNA:RNA)
# RNA: B2 RNA with A25U, U26A, A28U, U30G, U31G
# DNA 1: CAATCTGAATTCCGGTCTCCC
# DNA 2: TGGTGGCTACGACGGGATT
# B18: CGUAAAA (DNA:RNA)
# RNA: B2 RNA with A25C, U26G, G27U, U29A, U30A, U31A
# DNA 1: CAATCTGAATTCCGGTCTCCC
# DNA 2: TGGTGGCTACGACGGGATT
# B19: CGGGUAG (DNA:RNA)
# RNA: B2 RNA with A25C, U26G, A28G, U30A, U31G
# DNA 1: CAATCTGAATTCCGGTCTCCC
# DNA 2: TGGTGGCTACGACGGGATT
# B20: GCAUCUG (DNA:RNA)
# RNA: B1 RNA with U25G, C28U, G29C, C30U
# DNA 1: CAATCTGAATTCCGGTCTCCC
# DNA 2: TGGTGGCTACGACGGGATT
# B21: CUAUCAG (DNA:RNA)
# RNA: B1 RNA with U25C, C26U, C28U, G29C, C30A
# DNA 1: CAATCTGAATTCCGGTCTCCC
# DNA 2: TGGTGGCTACGACGGGATT
# B22: CCUCAAG (DNA:RNA)
# RNA: B1 RNA with U25C, A27U, G29A, C30A
# DNA 1: CAATCTGAATTCCGGTCTCCC
# DNA 2: TGGTGGCTACGACGGGATT
# B23: UACUAAC (DNA:RNA)
# RNA: B1 RNA with C26A, A27C, C28U, G29A, C30A, G31C
# DNA 1: CAATCTGAATTCCGGTCTCCC
# DNA 2: TGGTGGCTACGACGGGATT
# B24: GAUUCAG (DNA:RNA)
# RNA: B1 RNA with U25G, C26A, A27U, C28U, G29C, C30A
# DNA 1: CAATCTGAATTCCGGTCTCCC
# DNA 2: TGGTGGCTACGACGGGATT
# B25: AUGCUAG (DNA:RNA)
# RNA: B2 RNA with A28C, U30A, U31G
# DNA 1: CAATCTGAATTCCGGTCTCCC
# DNA 2: TGGTGGCTACGACGGGATT
# B26: CAGCAUG (DNA:RNA)
# RNA: B2 RNA with A25C, U26A, A28C, U29A, U31G
# DNA 1: CAATCTGAATTCCGGTCTCCC
# DNA 2: TGGTGGCTACGACGGGATT
# B27: GGCUCGA (DNA:RNA)
# RNA: GGGAGACCGGAAUUCAGAUUGUCCGGCUCGAUUAAAUCCCGUCGUAGCCACCA
# DNA 1: CAATCTGAATTCCGGTCTCCC
# DNA 2: TGGTGGCTACGACGGGATT
# B28: UUGAGUG (DNA:RNA)
# RNA: B2 RNA with A25U, U29G, U31G
# DNA 1: CAATCTGAATTCCGGTCTCCC
# DNA 2: TGGTGGCTACGACGGGATT
# B29: UUAUCAC (DNA:RNA)
# RNA: B27 RNA with G25U, G26U, C27A, G30A, A31C
# DNA 1: CAATCTGAATTCCGGTCTCCC
# DNA 2: TGGTGGCTACGACGGGATT
# B30: CGUGAAU (DNA:RNA)
# RNA: B2 RNA with A25C, U26G, G27U, A28G, U29A, U30A
# DNA 1: CAATCTGAATTCCGGTCTCCC
# DNA 2: TGGTGGCTACGACGGGATT
# B31: UGGGCGC (DNA:RNA)
# RNA: B27 RNA with G25U, C27G, U28G, A31C
# DNA 1: CAATCTGAATTCCGGTCTCCC
# DNA 2: TGGTGGCTACGACGGGATT
# Biological target: T1, RBFOX1 RRM
# Assay: EMSA; HiTS-Eq, 1 nM pool, 10 min; buffer printed only for the single-RNA assays: 10 mM Tris pH 7.5, 150 mM NaCl, 3.4 mM EDTA, 0.001% NP-40, 30 C
# Conditions: tags: His6 N-terminal (pET28a); label: 5' 32P
# How it was run: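 Relative association constants, normalised to the cognate motif, were derived by comparing read counts of each RNA species with those of the control reaction. The RNA sequenced was the free fraction, separated by 8% native PAGE after a 10 min equilibration in 50 µL of 1 nM 5′-radiolabelled RNA (7 randomized nucleotides) with increasing concentrations of purified wild-type or mutant RbFox RRM.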
row,Binder,binding signal
1,B1,0.00765 KA relative to UGCAUGU
2,B2,0.0105 KA relative to UGCAUGU
3,B3,0.00525 KA relative to UGCAUGU
4,B4,0.00238 KA relative to UGCAUGU
5,B5,0.0176 KA relative to UGCAUGU
6,B6,0.00679 KA relative to UGCAUGU
7,B7,0.0172 KA relative to UGCAUGU
8,B8,0.00968 KA relative to UGCAUGU
9,B9,0.0017 KA relative to UGCAUGU
10,B10,0.00976 KA relative to UGCAUGU
11,B11,0.0131 KA relative to UGCAUGU
12,B12,0.00956 KA relative to UGCAUGU
13,B13,0.00985 KA relative to UGCAUGU
14,B14,0.0102 KA relative to UGCAUGU
15,B15,0.00535 KA relative to UGCAUGU
16,B16,0.0207 KA relative to UGCAUGU

row,Binder,binding signal
1,B17,0.0164 KA relative to UGCAUGU
2,B18,0.000358 KA relative to UGCAUGU
3,B19,0.022 KA relative to UGCAUGU
4,B20,0.0193 KA relative to UGCAUGU
5,B21,0.0125 KA relative to UGCAUGU
6,B22,0.00422 KA relative to UGCAUGU
7,B23,0.0013 KA relative to UGCAUGU
8,B24,0.016 KA relative to UGCAUGU
9,B25,0.0132 KA relative to UGCAUGU
10,B26,0.665 KA relative to UGCAUGU
11,B27,0.033 KA relative to UGCAUGU
12,B28,0.0333 KA relative to UGCAUGU
13,B29,0.00249 KA relative to UGCAUGU
14,B30,0.00862 KA relative to UGCAUGU
15,B31,0.0335 KA relative to UGCAUGU
